The source gives no read counts; variants with many changes may rest on few reads.

First the molecules themselves.
B1: LINE1-full (parent)
chain: UACGUAGGUGGUUUUCCCCUGAUAGUGCUAAGGGGGCCUGGAAGUUUGGACUGGGCAGAGCUCAACACAGCGUGGCAAAGUGGCUGUGGCUAGACUGCCUCUCUGGAUUCCUCGUCACUCAGCAGGGCAUCUCUGAGAGAAAUGCC

In the data set the parent is B1. Put plainly: self-cleavage, relative activity (ratio to wild type); higher = more cleavage; in vitro, sequencing; the parent is a self-cleaving ribozyme.
Consider U81C U87C C120U, for which the self-cleavage stood at 0.39.
For U81A U96A A124G, the self-cleavage was found to be 0.12.
The same measure for U96C U104A U109A U112A A140C: 0.04; for U87A U109C C111U: 0.08; for U91A U96C A138G: 0.
U91C U96C U143C: the self-cleavage stood at 0.12.
Take A94U U104C U132C: the self-cleavage is 0.96.
The same measure for A94G C101A U108C: 0.33; for A94G A124G U130A U134C U143C: 0.
As for U81G U85C A142G, the figure is 0.41; as for U87C U130C U132C, 0.35.
U85C U112C C120U: the self-cleavage was found to be 0.25.
With A94G G97A U102C C103A A141G, the self-cleavage turned out to be 0.11.
As to U87A U132C A141G, the self-cleavage amounted to 0.06.
Take A92G G139A G144A: the self-cleavage turned out to be 0.
As for A79G U96C A117G, the figure is 0.
For U81G A94G A141G, the self-cleavage came out at 0.12.
Turning to A79G U119C A138G, the self-cleavage worked out at 0.
The same measure for A79G U87C U143C: 0.13; for C84G A141G U143C: 0.05; for U96C U115A A124G U130C A142G: 0.68.
As to A92G U119C A138U, the self-cleavage was found to be 0.
In the case of U85C U119C U132A, the self-cleavage worked out at 0.31.
In the case of G80U U100C A117G, the self-cleavage was 0.57.
As for U85C U91A A142G, the self-cleavage was determined as 0.
For the variant U87C U100A A136G, the self-cleavage turned out to be 0.13.
As for A79G U104A A107G, the figure is 1.02; as for A79U U87C A141G, 0.18.
With U87A A140G A142G, the self-cleavage is 0.07.
Regarding U85A U109C A117G U119A, the self-cleavage was 0.07.
In the case of U87C U96A A138G, the self-cleavage was determined as 0.
As to U85C U109C U134A, the self-cleavage was 0.31.
The same measure for G93A U102C U108C U112C U130C: 0.
As for G83A U108C U109C A140U, the self-cleavage came out at 1.25.
Turning to U100C A107G U109A, the self-cleavage is 1.88.
As for A92G C98U U102C, the self-cleavage amounted to 0.02.
A79C U100C U119A A124G A142G: the self-cleavage is 2.51.
The same measure for U85A A124C A136G A138G: 0.22; for U87C A107C A142G: 0.57; for U91C A121U A141U: 1.42.
Turning to U91A U134C A140G, the self-cleavage stood at 0.78.
For C84A U112C A140G, the self-cleavage came to 0.05.
Consider U96A G106U A140G A141G, for which the self-cleavage was determined as 0.02.
Regarding U96A A117G U119C A142G, the self-cleavage came out at 0.21.
As to U87A U96A U104C, the self-cleavage came to 0.1.
As for C99U U104C A129U, the self-cleavage was found to be 0.93.
On to U81A A107G U143A, for which the self-cleavage was found to be 1.92.
For G89C U91C U96C, the self-cleavage turned out to be 0.
For the variant C95U U108A A121U A136U, the self-cleavage was determined as 0.22.
U91A U100C A140G: the self-cleavage came to 0.68.
On to U100A U115C U119A, for which the self-cleavage was found to be 1.36.
Regarding G82A U130C A138U, the self-cleavage amounted to 2.26.
As for A79G G88A A142G, the self-cleavage stood at 0.06.
Take A79G U132C A140G: the self-cleavage was 1.17.
As to G89U U132C U134G, the self-cleavage was found to be 0.02.
Take U85A U91A A107G C111U: the self-cleavage was found to be 0.1.
As to U85A U112A U132C, the self-cleavage is 0.03.
The same measure for U87A A129G A138C: 0.07.
The same measure for A79G U104A A142U: 0.67.
Consider U96A U100C U119C A142G, for which the self-cleavage is 0.
As to A79G C90A A121U, the self-cleavage was determined as 0.03.
For U81C U102C U108A A121G, the self-cleavage amounted to 0.
With C99U U108C A129G, the self-cleavage is 0.75.
Take A92U U96C U108C A124G U143A: the self-cleavage was found to be 0.
As to C84U U102A U108C A129U, the self-cleavage stood at 0.16.
As for A92G U102C U119A, the self-cleavage was 0.
In the case of A92U A94U U100C, the self-cleavage was 0.59.
With U85C A124G A140U, the self-cleavage was 0.16.
U87A C95U A124G: the self-cleavage stood at 0.04.
The same measure for U87A A107U U119A A140U: 0.05; for U91C U100C A141G: 1.26.
Turning to A78U U96A U119C, the self-cleavage came to 0.07.
Consider U81A A107G U112C, for which the self-cleavage came to 2.17.
As for A79G U104C C116U, the self-cleavage turned out to be 1.42.
U81A U85C U115C: the self-cleavage was determined as 0.39.
For G83A A121U A124G, the self-cleavage came to 0.99.
Take U85A U115A U119C G125U: the self-cleavage was 0.08.
Regarding U87C U104C G105U G114A, the self-cleavage worked out at 0.25.
Consider G86A U91A U109C A136G, for which the self-cleavage is 0.07.
The same measure for A92U G114A U119C: 0.55; for U85C A94C C101U U102A: 0.
For C84U A129G A138G, the self-cleavage turned out to be 0.
Consider U81C U109A G127A, for which the self-cleavage is 0.99.
With U87A A107U G137A, the self-cleavage amounted to 0.08.
With A92C U96A A121G, the self-cleavage turned out to be 0.
As to U91C U104A A140G, the self-cleavage amounted to 0.
On to A94G U115C U132C, for which the self-cleavage is 0.
As to U81C U91C U119C, the self-cleavage came out at 1.53.
Regarding A94G U109C A141G, the self-cleavage stood at 0.28.
In the case of C90A U115C A121G A138U, the self-cleavage was determined as 0.01.
Turning to C99A A107G C120U, the self-cleavage came out at 0.72.
For the variant U96A C113U A117U U119C, the self-cleavage was determined as 0.
For U96C U102C U132C, the self-cleavage was 0.73.
As for U85C A92G A94G, the figure is 0; as for U81A U134A A142U, 1.67.
As to A79G U102C U119C, the self-cleavage came out at 0.4.
With U81A U108C A124U C133U A136G, the self-cleavage was 2.87.
For C98U U104A C123U, the self-cleavage came to 0.1.
Regarding U81A G86A A94C U112C, the self-cleavage came out at 0.05.
For the variant A94G U96G U134C, the self-cleavage turned out to be 0.
In the case of U81C U104C C110A A138G, the self-cleavage is 1.84.
Regarding A79G C95A G97A U100C U109A, the self-cleavage is 0.04.
As for U81C U104A U130C, the figure is 1.6; as for G93C U96C U100C, 0.04.
The same measure for A78U A136G U143A: 2.16; for U85A U102C U143A: 0.03.
G88A U100C U102C A117G: the self-cleavage was determined as 0.03.
With U96C A121G U134C A140G, the self-cleavage is 0.
Regarding U81A U104A U115A A136G A142G, the self-cleavage is 2.76.
As for U87A U134A A136C, the self-cleavage came to 0.06.
U87A A94U U109A A140G: the self-cleavage is 0.08.
For the variant G82A U87A C145G, the self-cleavage was determined as 0.13.
For U85A C95U A121G, the self-cleavage was determined as 0.13.
In the case of U96C U115A A141G, the self-cleavage is 0.13.
For U87C U109C A129G, the self-cleavage was found to be 0.2.
Consider G93U U115C A121C U130C, for which the self-cleavage was found to be 0.02.
For A94G U109A U115A A136G, the self-cleavage amounted to 0.27.
U87A U91C U115A: the self-cleavage was found to be 0.05.
The same measure for U87A U91C U115C: 0; for U100A U130A A141G: 0.88; for U91A A92G U104A: 0.13.
The same measure for U81A U112A A136G: 1.75.
As for U87A U130C A138G, the figure is 0.26; as for A94U A129U A142G, 0.39; as for U87C A94G A121U, 0.12.
Regarding U81A G89C U112C, the self-cleavage stood at 0.1.
As for A79U U87C U104C C113U, the figure is 0.28.
Turning to U87C A140G A142G, the self-cleavage worked out at 0.24.
As to U87A U100A A121G, the self-cleavage stood at 0.02.
In the case of U91A G105U A107G C146G, the self-cleavage worked out at 0.58.
As for A78U U109C A129U, the figure is 2.39; as for A94U G126A A140C, 0.29; as for U85A A92G U119C A124G, 0.
Consider G82A U102A A107G, for which the self-cleavage was determined as 1.83.
With U87A U100A U112C, the self-cleavage was found to be 0.05.
U91C U109C A140G: the self-cleavage worked out at 0.46.
On to A79U A107G G122A, for which the self-cleavage came to 2.34.
As for A78U A124G U132C, the self-cleavage turned out to be 1.45.
The same measure for G97A U115C A136G A142U: 0.45.
With U100A A117G U134C, the self-cleavage stood at 0.31.
G97A A140G A142G: the self-cleavage was determined as 0.05.
Regarding U87C U91A U112A U134C, the self-cleavage is 0.07.
As for U96A U100C U104A, the figure is 0.04; as for U81A U102A A124G A140G, 1.8.
As to U81A A107G U119A, the self-cleavage came to 2.81.
The same measure for C99U U115C A121G: 0.95; for U87C U109C A138U: 0.
The same measure for U87A U130A A136U: 0.07; for U91C U119C A138U U143C: 1.31.
As to A79C U104A A129G, the self-cleavage turned out to be 0.
In the case of U96A U130C C133A, the self-cleavage is 0.06.
For C84U U102C G125U, the self-cleavage stood at 0.13.
With U87A U108C A136G, the self-cleavage came out at 0.07.
As to A94G A124G A141G, the self-cleavage is 0.4.
Turning to U85C U96C G97C A121G, the self-cleavage is 0.
The same measure for A79G U81A U102A A107U: 2.7; for A92G U108C U132C: 0; for G80A U100A U102A U104G: 1.18.
For U87A U104C C113U U134G, the self-cleavage was 0.13.
Consider U81C U108G A129G, for which the self-cleavage was determined as 1.31.
As to U87A A107G C123U U134C, the self-cleavage came to 0.07.
Take G82A U96C U104A: the self-cleavage is 0.09.
For the variant U87A G105U A124U, the self-cleavage came out at 0.14.
Regarding U85C U87C U119A, the self-cleavage was determined as 0.
As for U85C U115C A141G, the figure is 0; as for U100A U108C U119A, 0.99; as for C99A U104C U112C A138G, 0.

These data come from the RNAGym collection of RNA variant scans (doi:10.7554/elife.90254).
